According to the supplement of paper PMC10369915:
Some of the results follow. Cut-off read from the data, not from the text of the source: active = 3.2 or more and inactive = the rest. Only a few entries rise above the background.

B1: HBA1_Y25_E24K (peptide)
chain: AHAGKYGAEAL
B2: HAUS3_Y582 (peptide)
chain: LKDEDYLKDIV
B3: GSTP1_Y109_YF (peptide)
chain: FISLIYTNFEA
B4: HBA1_Y141_Y141H (peptide)
chain: VLTSKHRGGGG
B5: HBA1_Y141_R142C (peptide)
chain: VLTSKYCGGGG
B6: HADHB_Y244 (peptide)
chain: LEQDEYALRSH
B7: HBA1_Y25_E28V (peptide)
chain: AHAGEYGAVAL
B8: HADHA_Y239 (peptide)
chain: ERTIEYLEEVA
B9: GUCY2D_Y656_R660Q (peptide)
chain: IKGIRYLHHQG
B10: GSTP1_Y109 (peptide)
chain: YISLIYTNYEA
B11: GSTP1_Y112_A114V_YF (peptide)
chain: LIFTNYEVGKD
B12: HARS1_Y138_R137Q (peptide)
chain: VPFAQYLAMNK
B13: HBA1_Y25_E24G (peptide)
chain: AHAGGYGAEAL
B14: HBA1_Y25_E28G (peptide)
chain: AHAGEYGAGAL
B15: H2BW1_Y84 (peptide)
chain: DSFATYFRRVL
B16: HBA1_Y141 (peptide)
chain: VLTSKYRGGGG
B17: HADHA_Y283 (peptide)
chain: VRQQVYKKVEE
B18: H6PD_Y449_R453Q (peptide)
chain: SDYYAYSPVQE
B19: HADHA_Y343 (peptide)
chain: ALMGLYHGQVL
B20: GTF2E2_Y137_I133T (peptide)
chain: VTDGKYAFKPK
B21: H1-3_Y72 (peptide)
chain: LAAAGYDVEKN
B22: HBA1_Y25_H21Q (peptide)
chain: AQAGEYGAEAL
B23: H1-3_Y72_E75K (peptide)
chain: LAAAGYDVKKN
B24: HARS1_Y363_D364Y (peptide)
chain: AAGGRYYGLVG
B25: GSTP1_Y109_I105V (peptide)
chain: YVSLIYTNYEA
B26: HARS2_Y151_R150C (peptide)
chain: KKMKCYHVGKV
B27: HBA1_Y25_A27E (peptide)
chain: AHAGEYGEEAL
B28: HBA1_Y141_K140T (peptide)
chain: VLTSTYRGGGG
B29: HARS1_Y156_V155G (peptide)
chain: HIAKGYRRDNP
B30: GSTO1_Y139_A140D (peptide)
chain: QNKEDYDGLKE
B31: GSTP1_Y109_I105V_YF (peptide)
chain: FVSLIYTNFEA
B32: HBA1_Y141_R142P (peptide)
chain: VLTSKYPGGGG
B33: HBA1_Y141_L137M (peptide)
chain: VMTSKYRGGGG
B34: HBA1_Y25_A22D (peptide)
chain: AHDGEYGAEAL
B35: H2BW1_Y84_R87W (peptide)
chain: DSFATYFRWVL
B36: HAUS3_Y582_I586T (peptide)
chain: LKDEDYLKDTV
B37: GSTO1_Y239 (peptide)
chain: PEACDYGLGGG

Target: SHP2 C-SH2 domain E139D
Test: enrichment score (SH2-bound / input frequency) (ratio); bacterial display of known human phosphotyrosine sites (pTyr-Var adds point mutants) read by sequencing; higher = stronger binding; tyrosines were phosphorylated by kinases first
Conditions: peptide library: pTyr-Var
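Note: displayed peptides selected on beads carrying the immobilized SH2 domain, with library peptides lacking any tyrosine serving as negative controls.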

Enrichment score, inactive:
B1 0.744
B2 0.483
B3 1.85
B4 0.891
B5 0.519
B6 0.691
B7 0.615
B8 0.962
B9 1.29
B10 3.1
B11 1.25
B12 0.981
B13 0.854
B14 0.532
B15 0.431
B16 0.485
B17 0.561
B18 0.656
B19 0.486
B20 0.495
B21 0.769
B22 0.513
B23 0.542
B24 0.701
B26 2.36
B27 0.452
B28 0.723
B29 0.209
B30 0.284
B31 1.84
B32 0.646
B33 0.564
B34 0.392
B35 1.93
B36 0.343
B37 0.719

Enrichment score, active:
B25 3.62

Target: SHP2 C-SH2 domain wild-type
Test: as above
Conditions: peptide library: pTyr-Var

Enrichment score, active:
B25 5.38

Enrichment score, inactive:
B1 0.494
B2 0.466
B3 1.91
B4 1.1
B5 0.639
B6 0.615
B7 0.698
B8 0.764
B9 1.5
B10 3.03
B11 1.39
B12 0.989
B13 0.64
B14 0.703
B15 0.296
B16 0.312
B17 0.768
B18 0.818
B19 0.908
B20 0.619
B21 0.741
B22 0.427
B23 0.732
B24 0.658
B26 2.06
B27 0.454
B28 0.759
B29 0.322
B30 0.438
B31 1.52
B32 0.725
B33 0.491
B34 0.462
B35 1.84
B36 0.439
B37 0.521

Target: SHP2 N-SH2 domain L43F
Test: as above
Conditions: peptide library: pTyr-Var

Enrichment score, active:
B10 4.57
B25 6.15

Enrichment score, inactive:
B1 0.616
B2 0.541
B3 1.46
B4 0.783
B5 0.51
B6 0.626
B7 0.621
B8 0.945
B9 1.35
B11 1.32
B12 1.13
B13 0.726
B14 0.505
B15 0.365
B16 0.41
B17 0.511
B18 0.674
B19 0.839
B20 0.686
B21 0.865
B22 0.417
B23 1.09
B24 0.724
B26 2.23
B27 0.541
B28 0.815
B29 0.249
B30 0.542
B31 1.61
B32 0.873
B33 0.49
B34 0.393
B35 1.61
B36 0.575
B37 0.455

Target: SHP2 N-SH2 domain T42A
Test: as above
Conditions: peptide library: pTyr-Var

Enrichment score, inactive:
B1 0.646
B2 0.479
B3 1.76
B4 0.504
B5 0.634
B6 0.402
B7 0.462
B8 1.49
B9 1.15
B11 1.22
B12 0.874
B13 0.483
B14 0.44
B15 0.396
B16 0.44
B17 0.669
B18 0.811
B19 0.791
B20 0.479
B21 0.591
B22 0.345
B23 0.709
B24 0.572
B26 1.94
B27 0.548
B28 0.676
B29 0.228
B30 0.618
B31 1.5
B32 0.748
B33 0.449
B34 0.502
B35 1.71
B36 0.42
B37 0.938

Enrichment score, active:
B10 7.74
B25 10.3

Target: SHP2 N-SH2 domain T52S
Test: as above
Conditions: peptide library: pTyr-Var

Enrichment score, active:
B10 5.62
B25 7.94

Enrichment score, inactive:
B1 0.699
B2 0.23
B3 1.74
B4 0.531
B5 0.609
B6 0.714
B7 0.615
B8 0.857
B9 1.77
B11 1.21
B12 1.06
B13 0.63
B14 0.54
B15 0.423
B16 0.532
B17 0.429
B18 0.592
B19 0.919
B20 0.379
B21 0.753
B22 0.363
B23 0.768
B24 0.674
B26 2.25
B27 0.419
B28 0.658
B29 0.323
B30 0.377
B31 1.66
B32 0.684
B33 0.536
B34 0.624
B35 1.85
B36 0.928
B37 0.715

Target: SHP2 N-SH2 domain wild-type
Test: as above
Conditions: peptide library: pTyr-Var

Enrichment score, inactive:
B1 0.773
B2 0.688
B3 2.49
B4 1.09
B5 0.514
B6 0.665
B7 0.79
B8 0.905
B9 1.51
B10 2.77
B11 1.32
B12 0.905
B13 0.635
B14 0.565
B15 0.339
B16 0.446
B17 0.646
B18 0.805
B19 0.785
B20 0.608
B21 0.74
B22 0.393
B23 1.06
B24 0.678
B25 2.98
B26 2.12
B27 0.584
B28 0.774
B29 0.345
B30 0.684
B31 1.77
B32 0.9
B33 0.618
B34 0.642
B35 1.95
B36 0.501
B37 0.92
